Reference: paper PMC11653366 (2024)

Key:
[1] = molecular target: T1, F*-PLLP; assay: fluorescence anisotropy
T1 chain: LASRPLPLLP

[2] = molecular target: T2, F*-p40; assay: fluorescence anisotropy
T2 chain: APTYSPPPPP

Kd [1]: > 1 mM | Kd [2]: 450 µM
B1: W122C SrcAbl SH3 84-145 (protein)
chain: GGVTTFVALYDYVASGDNDLSFKKGERLQIVNNHNGEWCLAHSLSTGQTGYIPSNYVAPSDS
